According to the supplement of paper PMC4723716:
± gives the uncertainty stated by the source. In all, about 9,900 compounds were measured (“viability index relative to DMSO control”: median about 1, lowest 2% from about 0.85 on). Some of the results follow.

System: Plasmodium falciparum NF54 stage V gametocytes
Test: viability index relative to DMSO control (fraction); higher = less gametocyte killing
Conditions: 2.5 µM, incubation time: 72 h
In short: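 Viability index is the count of red-stained particles in a well divided by the plate mean of solvent-only wells. Particles of 20–70 µm2 were counted in one imaged field per well after one to two hours with 3 µl of 2.5 µM MitoTracker Red CMXRos and 0.13% saponin. Before staining, P. falciparum NF54 stage V gametocytes in serum-free medium (0.75% gametocytemia, 1.25% hematocrit, 10 µl, 1,536-well plates) were kept with compound at 2.5 µM for 72 hr at 37°C under low oxygen.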

[1] = library set: Broad Institute DOS
[2] = library set: Broad Institute Blood Stage

## C[C@@H]1CCCCO[C@H](CN(C)Cc2ccc(C(F)(F)F)cc2)[C@H](C)CN([C@@H](C)CO)C(=O)c2cc(NC(=O)Nc3cccc4ccccc34)ccc2O1
[1]
  viability index: 1.04 ± 0.12

## C=C(C)C[C@@H]1CCn2cc(nn2)COCCNC1=O
[1]
  viability index: 1.06 ± 0.054

## C/C=C/c1ccc([C@@H]2[C@H](C#N)N(c3nc(CC)cs3)[C@H]2CO)cc1
[1]
  viability index: 1.06 ± 0.08

## C/C=C/c1ccccc1[C@@H]1[C@@H](C#N)N(C(=O)Cc2ccccn2)[C@H]1CO
[1]
  viability index: 1.06 ± 0.026

## C[C@@H]1CN([C@@H](C)CO)C(=O)CCCn2nncc2CO[C@@H]1CN(C)C(=O)c1ccc(N2CCN(C)CC2)cc1
[1]
  viability index: 1.08 ± 0.044

## COCC(=O)Nc1ccc2c(c1)[C@@H]1C[C@H](CC(=O)N[C@@H](C)c3ccccc3)O[C@H](CO)[C@@H]1O2
[1]
  viability index: 1.092 ± 0.0061

## CC(=O)N1[C@H](CO)[C@@H]2c3ccccc3N(C(=O)c3ccc(F)cc3)C[C@@H]21
[1]
  viability index: 1.03 ± 0.17

## CCCC#Cc1ccc2c(c1)O[C@H](CN(C)Cc1ccccn1)[C@@H](C)CN([C@@H](C)CO)S2(=O)=O
[1]
  viability index: 1.02 ± 0.084

## C[C@@H]1CN([C@@H](C)CO)C(=O)c2cc(-c3ccc(F)cc3)cnc2O[C@H]1CN(C)S(C)(=O)=O
[1]
  viability index: 1.07 ± 0.011

## C/C=C/c1ccc([C@H]2[C@@H](CO)N(Cc3cncnc3)C23CN(C(=O)COC)C3)cc1
[1]
  viability index: 0.929 ± 0.081

## O=C(Cc1cccnc1)N1[C@H](CO)[C@H](c2ccccc2)[C@@H]1CNCC1CCC1
[1]
  viability index: 1.08 ± 0.013

## O=C(Nc1cc(F)ccc1F)N1CCCCN2[C@@H](CO)[C@@H](c3ccc(C4=CCCCC4)cc3)[C@@H]2C1
[1]
  viability index: 0.818 ± 0.063

## CCCC(=O)N1C[C@@]2(C1)CN(CC1CC1)[C@@H](CO)c1[nH]c3cc(OC)ccc3c21
[1]
  viability index: 1.03 ± 0.03

## COc1cccc(NC(=O)N2CC(=O)N3[C@H](C2)[C@H](c2ccc(C4=CCCCC4)cc2)[C@@H]3CO)c1
[1]
  viability index: 1.03 ± 0.021

## O=C(c1ccccc1F)N1CC[C@H]2[C@H](CO)Nc3ccc(Br)cc3[C@H]21
[1]
  viability index: 1.079 ± 0.0094

## CO[C@H]1CN(C)C(=O)c2ccc(NS(C)(=O)=O)cc2OC[C@@H](C)N(CC2CC2)C[C@H]1C
[1]
  viability index: 1.09 ± 0.065

## CCN1[C@H](C(=O)NCCOC)[C@@H](CO)[C@@H]2Cn3c(ccc(-c4ccc(C(=O)N(C)C)cc4)c3=O)[C@@H]21
[1]
  viability index: 0.99 ± 0.058

## C[C@@H]1CN([C@@H](C)CO)C(=O)Cc2cc(NC(=O)Cn3cnnn3)ccc2O[C@@H]1CN(C)S(=O)(=O)c1ccc(Cl)cc1
[1]
  viability index: 1.04 ± 0.013

## CO[C@H]1CN(C)C(=O)c2cc(NC(=O)c3ccc(Oc4ccccc4)cc3)ccc2OC[C@@H](C)NC[C@@H]1C
[1]
  viability index: 1.07 ± 0.091

## Cc1cc(C(=O)Nc2ccc3c(c2)C(=O)N(C)[C@H]2CC[C@@H](CC(=O)NCc4ccc(-c5ccccc5)cc4)O[C@@H]2CO3)no1
[1]
  viability index: 1.12 ± 0.093

## CS(=O)(=O)N1[C@H](CO)[C@H](c2ccccc2)C12CN(C(=O)c1ccccc1F)C2
[1]
  viability index: 1.09 ± 0.043

## O=C(C[C@@H]1C[C@@H]2c3cc(NC(=O)Nc4ccccc4)ccc3O[C@@H]2[C@H](CO)O1)NCc1ccccc1
[1]
  viability index: 1.01 ± 0.018

## C[C@H](CO)N1C[C@H](C)[C@H](CN(C)C(=O)c2cc(-c3ccccc3)on2)OCc2cnnn2CCCC1=O
[1]
  viability index: 1.04 ± 0.038

## CCS(=O)(=O)N1[C@H](CO)[C@@H](c2ccccc2C2=CCCCC2)[C@@H]1C#N
[1]
  viability index: 1.03 ± 0.013

## C[C@@H](O)C#Cc1ccc([C@@H]2[C@@H](CO)N3CCCCN(C(=O)c4ccc5c(c4)OCO5)C[C@@H]23)cc1
[1]
  viability index: 0.982 ± 0.088

## CO[C@H]1CC[C@H]2CCN(C)C(=O)[C@@H](C)CN(C)C(=O)c3cc(C#N)ccc3OC[C@H]1O2
[1]
  viability index: 1.05 ± 0.034

## O=C(Cc1ccccn1)N[C@H]1CC[C@H](CCNS(=O)(=O)c2cccc(F)c2)O[C@H]1CO
[1]
  viability index: 0.878 ± 0.14

## C[C@H](NC(=O)C[C@H]1CC[C@H]2[C@@H](COC[C@@H](O)CN2C(=O)Nc2cccc(Cl)c2)O1)c1ccccc1
[1]
  viability index: 1.05 ± 0.032

## COc1ccccc1NC(=O)N[C@@H]1CC[C@H](CCNS(=O)(=O)c2ccc(Cl)cc2)O[C@@H]1CO
[1]
  viability index: 0.919 ± 0.1

## CCNC[C@@H]1[C@H](c2ccccc2)[C@@H](CO)N1C(=O)Cc1ccccn1
[1]
  viability index: 1.06 ± 0.042

## COc1ccc(NC(=O)N2[C@@H]3CNC[C@H]2[C@@H]3c2ccc(/C=C/c3ccccc3)cc2)cc1
[1]
  viability index: 1.05 ± 0.046

## COCc1cn([C@@H]2C[C@@H]3O[C@H](CO)CC[C@@H]3O[C@@H]2CCc2ccc(-c3ccc(OC)cc3)cc2)nn1
[2]
  viability index: 0.791 ± 0.041

## COc1cccc(S(=O)(=O)N2C[C@@H](O)COC[C@@H]3O[C@@H](CC(=O)N4CCN(c5ccccc5)CC4)CC[C@H]32)c1
[1]
  viability index: 0.971 ± 0.021

## N#C[C@H]1[C@@H](c2ccccc2-c2cccc(F)c2)[C@@H](CO)N1C(=O)CN1CCOCC1
[1]
  viability index: 1.134 ± 0.0063

## COc1ccc2c3c([C@H](CO)NC[C@]33CN(Cc4ccccc4Cl)C3)n(C)c2c1
[1]
  viability index: 0.995 ± 0.011

## N#C[C@@H]1[C@@H](c2ccccc2-c2ccccc2F)[C@H](CO)N1C(=O)Cc1ccccc1
[1]
  viability index: 1.15 ± 0.0062

## COc1ccccc1C#Cc1ccc([C@H]2[C@@H](C#N)N(C(=O)C3CCC3)[C@H]2CO)cc1
[1]
  viability index: 0.846 ± 0.07

## C[C@H](NC(=O)C[C@H]1C=C[C@H](NS(=O)(=O)c2cccc(F)c2)[C@@H](CO)O1)c1ccccc1
[1]
  viability index: 1.08 ± 0.19

## C/C=C/c1ccc2n(c1=O)C[C@H]1[C@H](CO)[C@@H](C(=O)N[C@H](C)c3ccccc3)[C@@H]2N1Cc1cncnc1.C/C=C\c1ccc2n(c1=O)C[C@H]1[C@H](CO)[C@@H](C(=O)N[C@H](C)c3ccccc3)[C@@H]2N1Cc1cncnc1
[1]
  viability index: 0.99 ± 0.074

## COc1ccc2c3c([C@H](CO)N(C[C@]33CCN(CC3)C(=O)Nc3cccc(F)c3)S(C)(=O)=O)n(C)c2c1
[1]
  viability index: 1.09 ± 0.095

## COc1ccc2c3c([C@@H](CO)N(Cc4cccc(F)c4)C[C@]33CCN(CC3)C(=O)Cc3ccccc3)n(C)c2c1
[1]
  viability index: 0.879 ± 0.033

## CN1CCCCN2[C@H](CO)[C@@H](c3ccc(-c4ccc(F)cc4)cc3)[C@@H]2C1
[1]
  viability index: 1 ± 0.011

## Cn1cnc(S(=O)(=O)N[C@H]2CC[C@H](CC(=O)NCC3CCCCC3)O[C@@H]2CO)c1
[1]
  viability index: 1.06 ± 0.01

## Cc1noc(C)c1S(=O)(=O)N(C)C[C@@H]1OCCCC[C@H](C)Oc2ccc(NC(=O)CCC(F)(F)F)cc2C(=O)N([C@@H](C)CO)C[C@H]1C
[1]
  viability index: 1.03 ± 0.09

## CNC[C@H]1OCc2cnnn2CCCC(=O)N([C@@H](C)CO)C[C@@H]1C
[1]
  viability index: 1.09 ± 0.024

## O=C(Nc1ccc(F)cc1)N1CC(=O)N2[C@H](CO)[C@H](c3ccc(-c4cccc(F)c4)cc3)[C@H]2C1
[1]
  viability index: 1.05 ± 0.019

## C[C@H](CO)N1C[C@H](C)[C@H](CN(C)C(=O)c2ccccc2)Oc2ncc(C#Cc3ccccc3)cc2C1=O
[1]
  viability index: 0.829 ± 0.086

## C[C@@H]1CN([C@@H](C)CO)C(=O)c2cc(NC(=O)Nc3ccccc3)ccc2O[C@@H](C)CCCCO[C@@H]1CN(C)C(=O)Nc1ccccc1
[1]
  viability index: 0.995 ± 0.05

## C[C@H](CO)N1C[C@H](C)[C@@H](CN(C)S(=O)(=O)c2cn(C)cn2)OCc2cnnn2CCCC1=O
[1]
  viability index: 1.02 ± 0.045

## COc1ccc(NC(=O)N2C[C@@H](O)COC[C@H]3O[C@H](CC(=O)NCc4ccncn4)CC[C@@H]32)cc1
[1]
  viability index: 1.07 ± 0.011

## O=C(CCN1CCCCC1)NCC[C@H]1CC[C@H](NS(=O)(=O)c2cccc(Cl)c2)[C@@H](CO)O1
[1]
  viability index: 0.996 ± 0.14

## COCCNC(=O)C[C@@H]1C[C@@H]2c3cc(NC(=O)CN(C)C)ccc3O[C@@H]2[C@H](CO)O1
[1]
  viability index: 1.02 ± 0.031

## C[C@H]1CN([C@@H](C)CO)C(=O)c2c(c3ccccc3n2C)-c2ccccc2CO[C@H]1CN(C)S(=O)(=O)c1ccc(F)cc1
[2]
  viability index: 0.929 ± 0.041

## COCC(=O)N1[C@H](C#N)[C@@H](c2ccccc2C2=CCCC2)[C@@H]1CO
[1]
  viability index: 1.15 ± 0.044

## COc1ccc2c3c([nH]c2c1)[C@@H](CO)N(C[C@]31CN(C1)S(=O)(=O)c1ccc(C)cc1)C(=O)Nc1ccc(F)cc1
[1]
  viability index: 1.08 ± 0.16

## C[C@@H]1CCCCO[C@@H](CN(C)Cc2ccc3c(c2)OCO3)[C@@H](C)CN([C@@H](C)CO)C(=O)c2cc(NS(=O)(=O)c3cn(C)cn3)ccc2O1
[1]
  viability index: 1.12 ± 0.047

## COc1ccc(S(=O)(=O)N2C[C@H](O)COC[C@H]3O[C@H](CC(=O)N[C@H]4CCN(Cc5ccccc5)C4)CC[C@@H]32)cc1
[1]
  viability index: 1.08 ± 0.067

## COc1cccc(NC(=O)N2[C@@H](CO)[C@@H](c3ccccc3)[C@@H]2CNCC(C)C)c1
[1]
  viability index: 0.938 ± 0.026

## CO[C@@H]1CN(C)C(=O)c2cc(NC(=O)c3ccc(Oc4ccccc4)cc3)ccc2OC[C@H](C)NC[C@@H]1C
[1]
  viability index: 1.06 ± 0.037

## CN1C(=O)c2cc(NC(=O)c3cccc(C(F)(F)F)c3)ccc2OC[C@H]2O[C@@H](CC(=O)NCCN3CCCC3)CC[C@H]21
[1]
  viability index: 1.04 ± 0.054

## O=C(C[C@H]1CC[C@H]2NC[C@@H](O)COC[C@@H]2O1)NCc1ccc2c(c1)OCO2
[1]
  viability index: 1.078 ± 0.0052

## O=C(Nc1ccc(F)cc1)N1CC(=O)N2[C@H](CO)[C@H](c3ccc(C#Cc4cccnc4)cc3)[C@@H]2C1
[1]
  viability index: 1.028 ± 0.0039

## CN1CCN(C(=O)C[C@H]2CC[C@@H]3[C@H](COC[C@@H](O)CN3C(=O)c3ccccc3F)O2)CC1
[1]
  viability index: 1.02 ± 0.11

## COc1ccccc1C(=O)Nc1ccc2c(c1)C(=O)N(C)[C@H]1CC[C@H](CC(=O)Nc3cccc(C(C)C)c3)O[C@@H]1CO2
[1]
  viability index: 1.04 ± 0.1

## C[C@H]1CN([C@@H](C)CO)C(=O)c2cc(NS(C)(=O)=O)ccc2O[C@@H]1CN(C)C
[1]
  viability index: 1.05 ± 0.031

## N#C[C@H]1[C@@H](c2ccccc2-c2cccc(F)c2)[C@@H](CO)N1C(=O)C1CC1
[1]
  viability index: 1.06 ± 0.13

## O=C1C[C@H](c2ccccc2)C(=O)N[C@H](c2ccccc2)C/C=C\C[C@H](c2ccccc2)N1
[1]
  viability index: 1.02 ± 0.018

## CCCNC(=O)N1CC(=O)N2[C@H](CO)[C@@H](c3ccc(C#CCC4CCCC4)cc3)[C@H]2C1
[1]
  viability index: 0.971 ± 0.049

## CN(C)C(=O)[C@@H]1[C@@H](CO)[C@@H]2Cn3c(cccc3=O)[C@H]1N2CC1CCOCC1
[1]
  viability index: 1.07 ± 0.064

## C[C@@H]1CN([C@H](C)CO)C(=O)CCCn2cc(nn2)CO[C@H]1CN(C)C(=O)c1ccc(N2CCN(C)CC2)cc1
[1]
  viability index: 1.05 ± 0.054
